# Source: the supplement of paper PMC8728848
# Some of the results follow.
# Experiments:
# Assay in all cases: glycan array binding signal (z-score within array); higher = stronger binding
# Conditions in all cases: glycan notation: IUPAC condensed, linker removed
# [1] = molecular target: Gal3S(b1-4)[Fuc(a1-3)]GlcNAc
# In short: (§1)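 Glycan array data came from 3228 arrays in the Consortium for Functional Glycomics database, and only arrays with an available protein sequence were kept. Glycan names were put into IUPAC-condensed notation, and columns mapping to the same glycan were averaged. The binding signal is a within-array Z-score, averaged across arrays of one protein sequence run at different concentrations or buffers and across linkers. A negative Z-score can be read as non-binding.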
# [2] = molecular target: Gal3S(b1-4)[Fuc(a1-3)]GlcNAc6S
# In short: as §1
# Gal3S4S(b1-4)GlcNAc = molecular target: Gal3S4S(b1-4)GlcNAc
# In short: as §1
# Gal3S6S(b1-4)GlcNAc = molecular target: Gal3S6S(b1-4)GlcNAc
# In short: as §1
# Gal3S6S(b1-4)GlcNAc6S = molecular target: Gal3S6S(b1-4)GlcNAc6S
# In short: as §1
# Gal4S(b1-4)GlcNAc = molecular target: Gal4S(b1-4)GlcNAc
# In short: as §1
# Gal4S6S(b1-4)GlcNAc = molecular target: Gal4S6S(b1-4)GlcNAc
# In short: as §1
# Gal6P(b1-4)GlcNAc = molecular target: Gal6P(b1-4)GlcNAc
# In short: as §1
# Gal6S(b1-3)GlcNAc = molecular target: Gal6S(b1-3)GlcNAc
# In short: as §1
# Gal6S(b1-3)GlcNAc6S = molecular target: Gal6S(b1-3)GlcNAc6S
# In short: as §1
# Gal6S(b1-4)Glc = molecular target: Gal6S(b1-4)Glc
# In short: as §1
# Gal6S(b1-4)Glc6S = molecular target: Gal6S(b1-4)Glc6S
# In short: as §1
# Gal6S(b1-4)GlcNAc = molecular target: Gal6S(b1-4)GlcNAc
# In short: as §1
# Gal6S(b1-4)GlcNAc6S = molecular target: Gal6S(b1-4)GlcNAc6S
# In short: as §1
# GalNAc(a1-3)Gal = molecular target: GalNAc(a1-3)Gal
# In short: as §1
# GalNAc(a1-3)GalNAc = molecular target: GalNAc(a1-3)GalNAc
# In short: as §1
# [3] = molecular target: GalNAc(a1-3)GalNAc(a1-3)Gal(a1-4)Gal(b1-4)GlcNAc
# In short: as §1
# [4] = molecular target: GalNAc(a1-3)GalNAc(b1-3)Gal(a1-4)Gal(b1-4)Glc
# In short: as §1
# GalNAc(b1-3)Gal = molecular target: GalNAc(b1-3)Gal
# In short: as §1
# [5] = molecular target: GalNAc(b1-3)Gal(a1-4)Gal(b1-4)GlcNAc
# In short: as §1
# [6] = molecular target: GalNAc(b1-3)Gal(a1-4)Gal(b1-4)GlcNAc(b1-3)Gal(b1-4)Glc
# In short: as §1
# [7] = molecular target: GalNAc(b1-3)Gal(a1-6)Gal(b1-4)Glc
# In short: as §1
# GalNAc(b1-3)GalNAc = molecular target: GalNAc(b1-3)GalNAc
# In short: as §1
# GalNAc(b1-3)GlcNAc = molecular target: GalNAc(b1-3)GlcNAc
# In short: as §1
# GalNAc(b1-4)Gal(b1-4)Glc = molecular target: GalNAc(b1-4)Gal(b1-4)Glc
# In short: as §1
# GalNAc(b1-4)GlcNAc = molecular target: GalNAc(b1-4)GlcNAc
# In short: as §1
# [8] = molecular target: GalNAc(b1-4)GlcNAc(b1-2)Man
# In short: as §1
# [9] = molecular target: GalNAc(b1-4)GlcNAc(b1-2)Man(a1-3)[GalNAc(b1-4)GlcNAc(b1-2)Man(a1-6)]Man(b1-4)GlcNAc(b1-4)GlcNAc
# In short: as §1
# [10] = molecular target: GalNAc(b1-4)GlcNAc(b1-3)GalNAc(b1-4)GlcNAc
# In short: as §1
# GalNAc(b1-4)GlcNAc6S = molecular target: GalNAc(b1-4)GlcNAc6S
# In short: as §1
# GalNAc(b1-6)GalNAc = molecular target: GalNAc(b1-6)GalNAc
# In short: as §1
# GalNAc3S(b1-4)GlcNAc = molecular target: GalNAc3S(b1-4)GlcNAc
# In short: as §1
# GalNAc3S(b1-4)GlcNAc3S = molecular target: GalNAc3S(b1-4)GlcNAc3S
# In short: as §1
# [11] = molecular target: GalNAc3S(b1-4)[Fuc(a1-3)]GlcNAc
# In short: as §1
# GalNAc4S6S(b1-4)GlcNAc = molecular target: GalNAc4S6S(b1-4)GlcNAc
# In short: as §1
# GalNAc6S(b1-4)GlcNAc = molecular target: GalNAc6S(b1-4)GlcNAc
# In short: as §1
# Glc(a1-4)Glc = molecular target: Glc(a1-4)Glc
# In short: as §1
# [12] = molecular target: Glc(a1-4)Glc(a1-4)Glc(a1-4)Glc
# In short: as §1
# Glc(a1-6)Glc(a1-6)Glc = molecular target: Glc(a1-6)Glc(a1-6)Glc
# In short: as §1
# [13] = molecular target: Glc(a1-6)Glc(a1-6)Glc(a1-6)Glc
# In short: as §1
# Glc(b1-4)Glc = molecular target: Glc(b1-4)Glc
# In short: as §1
# Glc(b1-6)Glc = molecular target: Glc(b1-6)Glc
# In short: as §1
# GlcA(b1-3)Gal = molecular target: GlcA(b1-3)Gal
# In short: as §1
# GlcA(b1-3)GlcNAc = molecular target: GlcA(b1-3)GlcNAc
# In short: as §1
# GlcA(b1-6)Gal = molecular target: GlcA(b1-6)Gal
# In short: as §1
binder,measurement,setting,value
"Gal 2 (Homo sapiens), P05162 (protein) MTGELEVKNMDMKPGSTLKITGSIADGTDGFVINLGQGTDKLNLHFNPRFSESTIVCNSLDGSNWGQEQREDHLCFSPGSEVKFTVTFESDKFKVKLPDGHELTFPNRLGHSHLSYLSVRGGFNMSSFKLKE",glycan array binding signal (z-score),[1],-0.194
same,glycan array binding signal (z-score),[2],-0.003
same,glycan array binding signal (z-score),Gal3S4S(b1-4)GlcNAc,-0.168
same,glycan array binding signal (z-score),Gal3S6S(b1-4)GlcNAc,-0.257
same,glycan array binding signal (z-score),Gal3S6S(b1-4)GlcNAc6S,-0.062
same,glycan array binding signal (z-score),Gal4S(b1-4)GlcNAc,-0.259
same,glycan array binding signal (z-score),Gal4S6S(b1-4)GlcNAc,-0.189
same,glycan array binding signal (z-score),Gal6P(b1-4)GlcNAc,-0.085
same,glycan array binding signal (z-score),Gal6S(b1-3)GlcNAc,-0.032
same,glycan array binding signal (z-score),Gal6S(b1-3)GlcNAc6S,-0.174
same,glycan array binding signal (z-score),Gal6S(b1-4)Glc,-0.19
same,glycan array binding signal (z-score),Gal6S(b1-4)Glc6S,-0.128
same,glycan array binding signal (z-score),Gal6S(b1-4)GlcNAc,-0.227
same,glycan array binding signal (z-score),Gal6S(b1-4)GlcNAc6S,-0.21
same,glycan array binding signal (z-score),GalNAc(a1-3)Gal,-0.281
same,glycan array binding signal (z-score),GalNAc(a1-3)GalNAc,-0.29
same,glycan array binding signal (z-score),[3],-0.134
same,glycan array binding signal (z-score),[4],-0.177
same,glycan array binding signal (z-score),GalNAc(b1-3)Gal,-0.232
same,glycan array binding signal (z-score),[5],-0.258
same,glycan array binding signal (z-score),[6],-0.235
same,glycan array binding signal (z-score),[7],-0.195
same,glycan array binding signal (z-score),GalNAc(b1-3)GalNAc,-0.239
same,glycan array binding signal (z-score),GalNAc(b1-3)GlcNAc,-0.102
same,glycan array binding signal (z-score),GalNAc(b1-4)Gal(b1-4)Glc,-0.174
same,glycan array binding signal (z-score),GalNAc(b1-4)GlcNAc,-0.273
same,glycan array binding signal (z-score),[8],0.044
same,glycan array binding signal (z-score),[9],-0.127
same,glycan array binding signal (z-score),[10],-0.104
same,glycan array binding signal (z-score),GalNAc(b1-4)GlcNAc6S,-0.309
same,glycan array binding signal (z-score),GalNAc(b1-6)GalNAc,-0.103
same,glycan array binding signal (z-score),GalNAc3S(b1-4)GlcNAc,-0.172
same,glycan array binding signal (z-score),GalNAc3S(b1-4)GlcNAc3S,-0.139
same,glycan array binding signal (z-score),[11],-0.275
same,glycan array binding signal (z-score),GalNAc4S6S(b1-4)GlcNAc,-0.218
same,glycan array binding signal (z-score),GalNAc6S(b1-4)GlcNAc,-0.095
same,glycan array binding signal (z-score),Glc(a1-4)Glc,-0.245
same,glycan array binding signal (z-score),[12],-0.213
same,glycan array binding signal (z-score),Glc(a1-6)Glc(a1-6)Glc,-0.2
same,glycan array binding signal (z-score),[13],-0.103
same,glycan array binding signal (z-score),Glc(b1-4)Glc,-0.269
same,glycan array binding signal (z-score),Glc(b1-6)Glc,-0.227
same,glycan array binding signal (z-score),GlcA(b1-3)Gal,-0.242
same,glycan array binding signal (z-score),GlcA(b1-3)GlcNAc,-0.231
same,glycan array binding signal (z-score),GlcA(b1-6)Gal,-0.245
